The source of these data is PubChem BioAssay AID1508624 (National Center for Advancing Translational Sciences (NCATS), 2021).

The whole screen tested about 48,000 compounds, of which about 120 (0.25%) were called active. Another 4% or so got no clear call; they are omitted. Calls follow the shape of the dose curve; as a rule, active = well fitted activation curve with a large enough effect; inconclusive = small, poorly fitted or top-dose-only effect, or another doubt; inactive = no such curve, though single readings can be large or run the other way. The list shows a part of the results.

The experiment in a line: Primary qHTS for Identification of Small Molecule Activators of Huntingtin-Antisense Promoter Activity. Also: nearly all actives have a fitted effect of over 55% in size. To be noted: HEK293 HTT-AS promoter firefly luciferase reporter (activity 0% = vehicle and -100% = no light), 24 h; series mostly up to 57.5 µM; activity change, positive = activation: at the top concentration. In short, it runs like this: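 Quantitative HTS used concentration series of up to 57.5 uM final on HEK293 luciferase reporter cells, 24 h at 37 degrees C. Readout was Dual-Glo firefly luminescence.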
As to `Cc1ccc(-n2ncc(C(=O)NCc3ccco3)c2C2CCN(C(=O)OC(C)(C)C)CC2)cc1C`, the “activity change, positive = activation” value is inactive: -33.4%.
As to `COc1cc(NC(=O)c2cc3cc4ccc(C)cc4nc3o2)cc(OC)c1OC`, the “activity change, positive = activation” value was inactive: -53.1%.
For `CCc1ccccc1N(C)C(=O)C1CCCN(c2ncnc3c2nc2n3CCCCC2)C1` (stereo not given) the value was inactive: -35.7%; for `Cc1c(C(=O)Nc2cc(F)ccc2F)sc2nc(-c3ccc(F)cc3)cn12`, inactive: 1.15%.
With `CCCCCCOc1ccc(C2C(=O)N(C3CCCCC3)CC(=O)N2C2CCCCC2)cc1` (stereo not given) the figure was inactive: -6.29%; with `CCC(=O)N1CCc2cc(S(=O)(=O)NCCC(=O)Nc3ccc(N(CC)CC)cc3C)ccc21`, inactive: -4.76%.
For the compound `CCN(CC)S(=O)(=O)c1ccc(C(=O)NCCSc2c(-c3ccccc3)[nH]c3ccccc23)cc1`, the “activity change, positive = activation” value was inactive: -33.6%.
For `O=C(c1ccc2c(c1)N(Cc1ccc(F)cc1)C(=O)c1ccccc1S2(=O)=O)N1CCCCC1` the value was inactive: -13.8%.
Take `Cc1ccc(-c2nn3c(C)nnc3c3ccccc23)cc1S(=O)(=O)NCC(C)O` (stereo not given): the “activity change, positive = activation” value is inactive: -2.9%.
For the compound `NC(=O)c1cc(S(=O)(=O)N2CCN(c3cccc(C(F)(F)F)c3)CC2)cs1`, the “activity change, positive = activation” value is inactive: -13.1%.
In the case of `COc1cc(NC(=O)CSc2c3c(nc4ccccc24)CCC3)cc(OC)c1OC`, the “activity change, positive = activation” value is inactive: -21.4%.
With `Cc1cccc(S(=O)(=O)c2cn(Cc3ccccc3)c3cc(N4CCCCC4)c(F)cc3c2=O)c1` the figure was inactive: -17.5%; with `CC[C@H](CC#N)OC(=O)N[C@@H](C)c1cccc(NC(=O)Nc2ccc(-c3cnco3)c(OC)c2)c1`, inactive: -37.2%; with `COC(=O)c1ccccc1NS(=O)(=O)c1cc2c(cc1C)N(C)CCO2`, inactive: -9.03%.
`CCN(CC)C(=O)c1c(-c2ccccc2)c(-c2ccccc2)nn(CC)c1=O`: the “activity change, positive = activation” value is inactive: -2.71%.
As to `COc1ccccc1N1CCN(C(=O)CN2C(=O)COc3ccc(S(=O)(=O)N4CCOCC4)cc32)CC1`, the “activity change, positive = activation” value is inactive: -18.7%.
For `COc1ccc(CCC(=O)NC2CC(=O)N(c3ccc(F)cc3)C2)cc1` (stereo not given) the value was inactive: -12.8%; for `CCN(Cc1nc(-c2ccc(OC)c(OC)c2)no1)S(=O)(=O)c1ccc(OC)cc1`, inactive: -26.8%.
With `C#Cc1cccc(Nc2ncnc3cc(OCCOC)c(OCCO)cc23)c1` the figure was inactive: -36%; with `CN1[C@@H]2CC(OC(=O)[C@H](CO)c3ccccc3)C[C@H]1[C@@H]1O[C@@H]12` (stereo not given in full), inactive: -28.4%.
In the case of `Cn1cnc2c(F)c(Nc3ccc(Br)cc3F)c(C(=O)NOCCO)cc21`, the “activity change, positive = activation” value is inactive: -0.233%.
With `O=C(CSc1nc(=O)n(Cc2ccccn2)c2c1CCC2)Nc1ccccc1` the figure was inactive: -26.6%; with `CSc1ccccc1NC(=O)CCS(=O)(=O)c1nc(-c2ccc3c(c2)OCO3)cc(C(F)(F)F)n1`, inactive: -2.08%; with `CC(C)(C)OC(=O)N1CCC(c2c(C(=O)NC3CCCCC3)cnn2-c2ccc(F)cc2F)CC1`, inactive: -17.3%.
For the compound `COc1cc(CNC(=O)c2cnc(SC)nc2-c2ccccc2)cc(OC)c1OC`, the “activity change, positive = activation” value is inactive: -15.3%.
With `Cc1ccc(S(=O)(=O)C(CNS(=O)(=O)c2cc(F)ccc2F)c2cccs2)cc1` (stereo not given) the figure was inactive: -19.2%; with `Cc1cccc(C)c1NC(=O)Cn1nnc(S(=O)(=O)c2ccccc2)c1N`, inactive: -13.9%.
For `O=C1CN(C(=O)c2ccc(S(=O)(=O)N3CCCC3)cc2)C(c2ccccc2)c2cc(F)ccc2N1` (stereo not given) the value was inactive: 6.16%; for `Cc1ccccc1-c1noc(-c2ccccc2OCC(=O)Nc2cccc([N+](=O)[O-])c2)n1`, inactive: -10.1%; for `N#Cc1c(-c2ccccc2)cc(-c2ccccc2)nc1SCC(O)CS(=O)(=O)Cc1ccc(Cl)cc1` (stereo not given), inactive: 0%.
For `COc1ccc2c3c1OC1C[C@@H](O)C=C[C@@]31CCN(C)C2` (stereo not given in full) the value was inactive: -11.5%.
`CCn1cc(/C=C(\NC(=O)c2cc(OC)c(OC)c(OC)c2)C(=O)NCCCn2ccnc2)c2ccccc21`: the “activity change, positive = activation” value is inactive: -7.12%.
For `Cc1cc(NC(=O)Cc2ccccc2)cc(-c2nc3ccccc3o2)c1O` the value was inactive: 1.97%.
For `Cc1c(C(=O)NCCN(C)C)oc2c1-c1nn(Cc3cccc(Cl)c3)cc1CC2` the value was inactive: -14.9%; for `CCOC(=O)c1cc2c(=O)n3ccccc3nc2n(C(C)C)c1=NC(=O)C(C)(C)Oc1ccc(Cl)cc1`, inactive: 15.3%.
For `CN(C)c1ccc(Nc2ncnc3c2c(-c2ccccc2)cn3-c2cccc(Cl)c2)cc1` the value was inactive: -27.4%; for `CCn1cc2nc(SCc3ccccc3Cl)n(Cc3ccc(OC)cc3)c(=O)c2n1`, inactive: -6.84%.
As for `COc1cccc(CNC(=O)c2ccc(-c3nc(CSc4ccccc4)c(C)o3)cc2)c1`, the “activity change, positive = activation” value was inactive: 6.28%.
With `CC(=O)Nc1ccccc1-c1nc2ccccc2n(C(C)C(=O)Nc2ccccc2C(F)(F)F)c1=O` (stereo not given) the figure was inactive: -12.9%; with `COc1ccc(-c2c(C)c3ccc(O)c(CN4CCC(C)CC4)c3oc2=O)cc1OC`, inactive: -12.8%.
Take `CCCN(CCC)CCCNC(=O)c1cc2c(=O)n(C)c3ccccc3c2s1`: the “activity change, positive = activation” value is inactive: 0.039%.
For `Cc1ccc(CNC(=O)c2cc(=O)c3cc(C)ccc3o2)cc1` the value was inactive: -14.4%.
On to `COc1cc(OC)c(OC)cc1/C=C/c1nc2cc3ccccc3cc2c(=O)n1-c1ccccc1Br`, for which the “activity change, positive = activation” value was inactive: -11.8%.
As to `COc1cc2c(c(OC)c1)C(c1cccc(F)c1F)CC(=O)N2` (stereo not given), the “activity change, positive = activation” value was inactive: -13.8%.
With `CCN1CCN(c2oc(-c3ccc(COc4ccccc4C)o3)nc2C#N)CC1` the figure was inactive: -22.9%.
